The whole screen tested about 310,000 compounds, of which about 2,200 (0.71%) showed an effect of 50% or more. Effects have a minus sign here. This is one part of the list.
Molecular target: human ether-à-go-go-related gene (hERG) potassium channel (human, UniProt Q12809)
Assay: primary screen, population patch clamp on CHO cells stably expressing hERG

Sequence of human ether-à-go-go-related gene (hERG) potassium channel (Q12809 whole entry, looked up): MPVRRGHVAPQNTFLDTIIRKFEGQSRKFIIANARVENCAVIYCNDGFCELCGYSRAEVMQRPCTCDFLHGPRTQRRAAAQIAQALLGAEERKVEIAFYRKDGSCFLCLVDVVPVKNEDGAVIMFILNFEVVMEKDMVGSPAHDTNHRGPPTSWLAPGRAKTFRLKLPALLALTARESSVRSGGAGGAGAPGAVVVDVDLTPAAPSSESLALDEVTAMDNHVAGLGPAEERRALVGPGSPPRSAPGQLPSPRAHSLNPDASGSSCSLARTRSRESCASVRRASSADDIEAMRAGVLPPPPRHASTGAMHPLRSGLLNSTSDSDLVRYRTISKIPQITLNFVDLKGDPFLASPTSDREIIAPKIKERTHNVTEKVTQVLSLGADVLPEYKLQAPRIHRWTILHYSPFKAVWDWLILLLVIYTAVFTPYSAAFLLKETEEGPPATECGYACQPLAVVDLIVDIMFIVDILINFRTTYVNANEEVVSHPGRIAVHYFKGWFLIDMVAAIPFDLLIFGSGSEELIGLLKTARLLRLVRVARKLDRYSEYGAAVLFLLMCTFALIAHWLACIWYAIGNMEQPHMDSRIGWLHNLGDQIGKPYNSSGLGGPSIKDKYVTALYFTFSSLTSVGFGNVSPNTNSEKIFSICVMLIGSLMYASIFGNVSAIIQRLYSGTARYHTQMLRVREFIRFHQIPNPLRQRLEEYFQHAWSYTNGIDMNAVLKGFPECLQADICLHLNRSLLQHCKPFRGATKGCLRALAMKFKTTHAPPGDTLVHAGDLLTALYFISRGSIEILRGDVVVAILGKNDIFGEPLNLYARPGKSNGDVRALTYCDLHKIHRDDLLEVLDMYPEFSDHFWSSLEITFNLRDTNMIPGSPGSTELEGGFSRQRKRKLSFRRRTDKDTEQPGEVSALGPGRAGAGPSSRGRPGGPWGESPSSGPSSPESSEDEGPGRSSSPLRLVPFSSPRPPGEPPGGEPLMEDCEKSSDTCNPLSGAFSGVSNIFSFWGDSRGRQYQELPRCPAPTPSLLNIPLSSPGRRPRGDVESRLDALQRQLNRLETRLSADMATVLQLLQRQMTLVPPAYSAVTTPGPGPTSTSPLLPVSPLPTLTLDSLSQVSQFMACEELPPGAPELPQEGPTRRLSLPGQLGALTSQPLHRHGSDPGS

Structure (SMILES)	hERG current change (%, negative = inhibition) at 1uM
Cn1c(=O)c2[nH]c(NCCCN3CCOCC3)nc2n(C)c1=O	-2.23%
Cc1cccc(C(=O)NC2CC(C)(C)NC(C)(C)C2)c1	9.14%
O=Cc1cn(Cc2cccc(F)c2)c2ccccc12	8.79%
COc1ccc(Cn2nc(-c3ccccc3)c(N3CCCCC3)cc2=O)cc1	-9.28%
CN(CC(=O)Nc1cccc(F)c1)C(=O)c1ccc(N2C(=O)c3ccccc3C2=O)cc1	10.7%
O=C(CSCc1ccc(Cl)cc1)Nc1ccc(O)cc1C(=O)O	11.8%
Cc1ccc(-c2nn3c(C)nnc3c3ccccc23)cc1S(=O)(=O)N(C)CCO	6.4%
COc1cccc(-n2c(N)c(C#N)c3ccc([N+](=O)[O-])cc3c2=O)c1	3.67%
CC(=O)N1CCSc2ccc(S(=O)(=O)NCCc3cccc(C)c3)cc21	-2.36%
COc1ccc(OC)c(C2=NS(=O)(=O)N(C)C(C(=O)Nc3ccc(C(C)=O)cc3)=C2)c1	14.1%
Cc1ccc(S(=O)(=O)Nc2cccc(CP(=O)(c3ccccc3)c3ccccc3)c2)cc1	14%
N/C(=N\OC(=O)COc1cc(Cl)c(Cl)cc1Cl)c1ccncc1	11.9%
NC(=O)c1ccccc1NC(=O)NC1CCCCC1	2.35%
CC(=O)CCC(=O)OCC(=O)c1ccc(C(F)(F)F)cc1	11.6%
Cc1[nH]c2ccccc2c1C(=O)COC(=O)c1ccc([N+](=O)[O-])s1	11.3%
CCC(C)NC(=O)C(NS(=O)(=O)c1ccc2c(c1)c(=O)n(C)c(=O)n2C)c1ccccc1 (stereo not shown)	7.18%
O=C(NCCCN1CCCC1=O)c1cccc(NS(=O)(=O)c2ccccc2)c1	13.4%
COc1ccccc1N(C)S(=O)(=O)c1ccc(C(=O)OCC(=O)NCCC2=CCCCC2)cc1	5.44%
CCc1ccc(NC(=O)CCS(=O)(=O)c2ccc(Cl)cc2)cc1	18%
Cc1nc(N2N=C3/C(=C/c4ccc(F)cc4)CCCC3C2c2ccc(F)cc2)sc1C(=O)N(C)C (stereo not shown)	0.185%
O=C(C1=NN(c2ccccc2)C(=O)CC1)N1CCc2ccccc2C1	17.9%
Oc1ccc(-c2nc3ccccn3c2NCc2ccco2)cc1	4.71%

Structure (SMILES)	hERG current change (%, negative = inhibition) at 1uM
NC(=O)C1CCN(C(=O)c2ccc(NC3=NC4CS(=O)(=O)CC4S3)cc2)CC1 (stereo not shown)	12%
O=C(CCCCCNc1nc(=S)[nH]c2ccccc12)NCCc1ccc(Cl)cc1	5.03%
N#CCCn1cc(C(=O)Nc2ccccc2Cl)c(-c2ccc([N+](=O)[O-])cc2)n1	-44%
Cc1c(NC(=O)COC(=O)Cc2ccc(F)cc2)c(=O)n(-c2ccccc2)n1C	4.06%
CCCCn1c(=O)c(C(=O)NCc2ccncc2)c(O)c2ccccc21	-0.804%
COc1ccc(CNC(=O)C(C)N(Cc2ccccc2OC)C(=O)c2snc(C(N)=O)c2N)cc1 (stereo not shown)	12.1%
Brc1ccc(OCCOc2cccc3cccnc23)cc1	9.9%
CN1CCN(NC(=O)COc2cccc(C(F)(F)F)c2)CC1	7.45%
Cc1cc(C)n2nc(C(=O)OCC(=O)Nc3ccc(C)c(S(=O)(=O)N(C)C)c3)nc2n1	9.98%
O=S(=O)(c1ccc(Br)cc1)N1CCN(c2ccc3nnc(-c4ccccc4)n3n2)CC1	-7.59%
O=C(CSc1nnc(-c2ccco2)n1CC1CCCO1)c1ccccc1 (stereo not shown)	4.85%
Cc1ccsc1/C=N/N1CCN(c2ccccn2)CC1	5.75%
Cn1c(CC(=O)Nc2ccccc2)cc2ccccc21	16%
COc1ccc(-c2nn(Cc3ccccc3)cc2C(=O)N2CCN(c3ncccn3)CC2)cc1	12.1%
Clc1ccccc1N/N=C/c1ccc2c(c1)OCO2	7.24%
CC(=O)Nc1cc(OC(C)=O)c2nonc2c1OC(C)=O	3.83%
CCN(CC(=O)NCc1ccc(F)cc1)C(=O)/C=C/c1cccs1	-4.26%
CC(C)=CCCC(C)CN1CCC(O)CC1 (stereo not shown)	4.23%
Brc1ccc(OCCCOc2cccc3cccnc23)cc1	14.1%
O=C(CN1C(=O)c2ccccc2C1=O)N1CCN(S(=O)(=O)c2ccccc2)CC1	4.56%
COC(=O)[C@]1(CC(C)C)N[C@H](c2ccc(-c3ccc(F)cc3)c(OC)c2)[C@@H]2C(=O)N(C)C(=O)[C@@H]21.O=C(O)C(F)(F)F	2.43%

Reference: PMC4336329 (PLoS ONE, 2015)
